In article PMC12820563 one finds binding signal (RPM ratio (pull-down/input)) data, which are given here for 63 sequences.

The list shows a part of the results. The list includes weakly bound sequences.

For the assay, the target named is T1, MBP-FoxP3dN (UniProt Q99JB6).
T1 sequence: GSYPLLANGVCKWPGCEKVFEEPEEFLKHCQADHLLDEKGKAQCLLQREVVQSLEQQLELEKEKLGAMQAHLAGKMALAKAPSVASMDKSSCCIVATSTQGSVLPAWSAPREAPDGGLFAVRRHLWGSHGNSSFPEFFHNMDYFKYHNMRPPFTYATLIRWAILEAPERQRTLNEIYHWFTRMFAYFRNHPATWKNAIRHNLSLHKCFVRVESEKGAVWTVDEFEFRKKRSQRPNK
Briefly: PD-seq (MBP pull-down with sequencing). The note with it: 20 mM Tris-HCl pH 7.5, 100 mM NaCl, 1.5 mM MgCl2, 0.4 uM protein, 0.1 uM dsDNA library, 30 min, room temperature, amylose pull-down; high values mean tight binding; double strand, one strand shown.
“GATGATTGTTCTCCCAGCTGATGAATTACGAGGATCGAGTAAACAAATTTTCCTAATCTTTCTGTTCAAGCGCCATCTAC”: the binding signal (RPM ratio (pull-down/input)) worked out at 0.276.
Next, “GATGATTGTTCTCCCAGCTGATGAATTCGCGAACTCGAGTAAACAAATTTTCCTAATCTTTCTGTTCAAGCGCCATCTAC”: 0.241; “GATGATTGTTCTCCCAGCTGATGAATTGTTATTCTCGAGTAAACAAATTTTCCTAATCTTTCTGTTCAAGCGCCATCTAC”: 5.18.
Next, “GATGATTGTTCTCCCAGCTGATGAATTAAGCGCATCGAGTAAACAAATTTTCCTAATCTTTCTGTTCAAGCGCCATCTAC”: 1.44; “GATGATTGTTCTCCCAGCTGATGAATTAGGGGTATCGAGTAAACAAATTTTCCTAATCTTTCTGTTCAAGCGCCATCTAC”: 0.773; “GATGATTGTTCTCCCAGCTGATGAATTTCGGATCTCGAGTAAACAAATTTTCCTAATCTTTCTGTTCAAGCGCCATCTAC”: 0.293.
Next, “GATGATTGTTCTCCCAGCTGATGAATTATAGTCATCGAGTAAACAAATTTTCCTAATCTTTCTGTTCAAGCGCCATCTAC”: 0.621; “GATGATTGTTCTCCCAGCTGATGAATTGGGCGCGTCGAGTAAACAAATTTTCCTAATCTTTCTGTTCAAGCGCCATCTAC”: 1.23.
In the case of “GATGATTGTTCTCCCAGCTGATGAATTAATAAGATCGAGTAAACAAATTTTCCTAATCTTTCTGTTCAAGCGCCATCTAC”, the binding signal (RPM ratio (pull-down/input)) turned out to be 0.21.
The value for “GATGATTGTTCTCCCAGCTGATGAATTAAATGCTTCGAGTAAACAAATTTTCCTAATCTTTCTGTTCAAGCGCCATCTAC” was 1.2; that for “GATGATTGTTCTCCCAGCTGATGAATTCTAATGATCGAGTAAACAAATTTTCCTAATCTTTCTGTTCAAGCGCCATCTAC” was 0.643; that for “GATGATTGTTCTCCCAGCTGATGAATTCTACCGTTCGAGTAAACAAATTTTCCTAATCTTTCTGTTCAAGCGCCATCTAC” was 0.37.
As to “GATGATTGTTCTCCCAGCTGATGAATTATATATCTCGAGTAAACAAATTTTCCTAATCTTTCTGTTCAAGCGCCATCTAC”, the binding signal (RPM ratio (pull-down/input)) came to 0.993.
Next, “GATGATTGTTCTCCCAGCTGATGAATTTAAAGTTTCGAGTAAACAAATTTTCCTAATCTTTCTGTTCAAGCGCCATCTAC”: 0.312.
The value for “GATGATTGTTCTCCCAGCTGATGAATTTAGGAAGTCGAGTAAACAAATTTTCCTAATCTTTCTGTTCAAGCGCCATCTAC” was 0.234.
Next, “GATGATTGTTCTCCCAGCTGATGAATTAAACTGCTCGAGTAAACAAATTTTCCTAATCTTTCTGTTCAAGCGCCATCTAC”: 0.298.
For “GATGATTGTTCTCCCAGCTGATGAATTGATAGTATCGAGTAAACAAATTTTCCTAATCTTTCTGTTCAAGCGCCATCTAC”, the binding signal (RPM ratio (pull-down/input)) came to 1.06.
As for “GATGATTGTTCTCCCAGCTGATGAATTTTCCCGGTCGAGTAAACAAATTTTCCTAATCTTTCTGTTCAAGCGCCATCTAC”, the binding signal (RPM ratio (pull-down/input)) is 0.13.
The value for “GATGATTGTTCTCCCAGCTGATGAATTTAGGGAATCGAGTAAACAAATTTTCCTAATCTTTCTGTTCAAGCGCCATCTAC” was 0.316.
Next, “GATGATTGTTCTCCCAGCTGATGAATTTCGTCGTTCGAGTAAACAAATTTTCCTAATCTTTCTGTTCAAGCGCCATCTAC”: 0.9; “GATGATTGTTCTCCCAGCTGATGAATTTAGAAACTCGAGTAAACAAATTTTCCTAATCTTTCTGTTCAAGCGCCATCTAC”: 0.679.
Next, “GATGATTGTTCTCCCAGCTGATGAATTGGGGGTCTCGAGTAAACAAATTTTCCTAATCTTTCTGTTCAAGCGCCATCTAC”: 0.826; “GATGATTGTTCTCCCAGCTGATGAATTTTCCAGTTCGAGTAAACAAATTTTCCTAATCTTTCTGTTCAAGCGCCATCTAC”: 0.212; “GATGATTGTTCTCCCAGCTGATGAATTAGGCGCATCGAGTAAACAAATTTTCCTAATCTTTCTGTTCAAGCGCCATCTAC”: 1.59.
With “GATGATTGTTCTCCCAGCTGATGAATTTAAGCACTCGAGTAAACAAATTTTCCTAATCTTTCTGTTCAAGCGCCATCTAC”, the binding signal (RPM ratio (pull-down/input)) was 0.518.
Next, “GATGATTGTTCTCCCAGCTGATGAATTTACATCATCGAGTAAACAAATTTTCCTAATCTTTCTGTTCAAGCGCCATCTAC”: 0.953; “GATGATTGTTCTCCCAGCTGATGAATTCTAAACATCGAGTAAACAAATTTTCCTAATCTTTCTGTTCAAGCGCCATCTAC”: 1.61.
Turning to “GATGATTGTTCTCCCAGCTGATGAATTGACTCTCTCGAGTAAACAAATTTTCCTAATCTTTCTGTTCAAGCGCCATCTAC”, the binding signal (RPM ratio (pull-down/input)) stood at 0.425.
The value for “GATGATTGTTCTCCCAGCTGATGAATTCTTATGGTCGAGTAAACAAATTTTCCTAATCTTTCTGTTCAAGCGCCATCTAC” was 0.32; that for “GATGATTGTTCTCCCAGCTGATGAATTAATTTGTTCGAGTAAACAAATTTTCCTAATCTTTCTGTTCAAGCGCCATCTAC” was 3.91; that for “GATGATTGTTCTCCCAGCTGATGAATTGCCGAGGTCGAGTAAACAAATTTTCCTAATCTTTCTGTTCAAGCGCCATCTAC” was 0.34.
The value for “GATGATTGTTCTCCCAGCTGATGAATTGATGGCATCGAGTAAACAAATTTTCCTAATCTTTCTGTTCAAGCGCCATCTAC” was 1.16.
As to “GATGATTGTTCTCCCAGCTGATGAATTGGGCCTATCGAGTAAACAAATTTTCCTAATCTTTCTGTTCAAGCGCCATCTAC”, the binding signal (RPM ratio (pull-down/input)) came to 1.58.
Next, “GATGATTGTTCTCCCAGCTGATGAATTGTATACTTCGAGTAAACAAATTTTCCTAATCTTTCTGTTCAAGCGCCATCTAC”: 3.98; “GATGATTGTTCTCCCAGCTGATGAATTAACCGATTCGAGTAAACAAATTTTCCTAATCTTTCTGTTCAAGCGCCATCTAC”: 0.251.
Next, “GATGATTGTTCTCCCAGCTGATGAATTTGAATCTTCGAGTAAACAAATTTTCCTAATCTTTCTGTTCAAGCGCCATCTAC”: 0.603; “GATGATTGTTCTCCCAGCTGATGAATTGCTGATATCGAGTAAACAAATTTTCCTAATCTTTCTGTTCAAGCGCCATCTAC”: 0.862; “GATGATTGTTCTCCCAGCTGATGAATTTATAACTTCGAGTAAACAAATTTTCCTAATCTTTCTGTTCAAGCGCCATCTAC”: 0.47.
“GATGATTGTTCTCCCAGCTGATGAATTTCCCCACTCGAGTAAACAAATTTTCCTAATCTTTCTGTTCAAGCGCCATCTAC”: the binding signal (RPM ratio (pull-down/input)) was 0.236.
The value for “GATGATTGTTCTCCCAGCTGATGAATTTCGGAACTCGAGTAAACAAATTTTCCTAATCTTTCTGTTCAAGCGCCATCTAC” was 0.21.
The value for “GATGATTGTTCTCCCAGCTGATGAATTTAAAGCCTCGAGTAAACAAATTTTCCTAATCTTTCTGTTCAAGCGCCATCTAC” was 0.421.
For the sequence “GATGATTGTTCTCCCAGCTGATGAATTACGGTCGTCGAGTAAACAAATTTTCCTAATCTTTCTGTTCAAGCGCCATCTAC”, the binding signal (RPM ratio (pull-down/input)) amounted to 0.576.
The value for “GATGATTGTTCTCCCAGCTGATGAATTTCAATAATCGAGTAAACAAATTTTCCTAATCTTTCTGTTCAAGCGCCATCTAC” was 0.318.
The value for “GATGATTGTTCTCCCAGCTGATGAATTGTAAGGATCGAGTAAACAAATTTTCCTAATCTTTCTGTTCAAGCGCCATCTAC” was 0.31.
Next, “GATGATTGTTCTCCCAGCTGATGAATTCTAGATTTCGAGTAAACAAATTTTCCTAATCTTTCTGTTCAAGCGCCATCTAC”: 0.297.
With “GATGATTGTTCTCCCAGCTGATGAATTCTGGCAATCGAGTAAACAAATTTTCCTAATCTTTCTGTTCAAGCGCCATCTAC”, the binding signal (RPM ratio (pull-down/input)) is 2.
Regarding “GATGATTGTTCTCCCAGCTGATGAATTCCAGACTTCGAGTAAACAAATTTTCCTAATCTTTCTGTTCAAGCGCCATCTAC”, the binding signal (RPM ratio (pull-down/input)) amounted to 0.319.
In the case of “GATGATTGTTCTCCCAGCTGATGAATTTACCGTGTCGAGTAAACAAATTTTCCTAATCTTTCTGTTCAAGCGCCATCTAC”, the binding signal (RPM ratio (pull-down/input)) turned out to be 0.613.
“GATGATTGTTCTCCCAGCTGATGAATTAACACTGTCGAGTAAACAAATTTTCCTAATCTTTCTGTTCAAGCGCCATCTAC”: the binding signal (RPM ratio (pull-down/input)) turned out to be 0.451.
The value for “GATGATTGTTCTCCCAGCTGATGAATTAGAACTATCGAGTAAACAAATTTTCCTAATCTTTCTGTTCAAGCGCCATCTAC” was 0.418; that for “GATGATTGTTCTCCCAGCTGATGAATTTAGATATTCGAGTAAACAAATTTTCCTAATCTTTCTGTTCAAGCGCCATCTAC” was 1.13; that for “GATGATTGTTCTCCCAGCTGATGAATTGATACGGTCGAGTAAACAAATTTTCCTAATCTTTCTGTTCAAGCGCCATCTAC” was 1.24.
Next, “GATGATTGTTCTCCCAGCTGATGAATTCGATTTTTCGAGTAAACAAATTTTCCTAATCTTTCTGTTCAAGCGCCATCTAC”: 1.46; “GATGATTGTTCTCCCAGCTGATGAATTTAAGTAGTCGAGTAAACAAATTTTCCTAATCTTTCTGTTCAAGCGCCATCTAC”: 0.466; “GATGATTGTTCTCCCAGCTGATGAATTGAGAGGTTCGAGTAAACAAATTTTCCTAATCTTTCTGTTCAAGCGCCATCTAC”: 0.335.
The value for “GATGATTGTTCTCCCAGCTGATGAATTCCTACGATCGAGTAAACAAATTTTCCTAATCTTTCTGTTCAAGCGCCATCTAC” was 0.26; that for “GATGATTGTTCTCCCAGCTGATGAATTTTCGCACTCGAGTAAACAAATTTTCCTAATCTTTCTGTTCAAGCGCCATCTAC” was 0.504; that for “GATGATTGTTCTCCCAGCTGATGAATTACGCCCGTCGAGTAAACAAATTTTCCTAATCTTTCTGTTCAAGCGCCATCTAC” was 2.14.
With “GATGATTGTTCTCCCAGCTGATGAATTTACTTTCTCGAGTAAACAAATTTTCCTAATCTTTCTGTTCAAGCGCCATCTAC”, the binding signal (RPM ratio (pull-down/input)) is 1.32.
Next, “GATGATTGTTCTCCCAGCTGATGAATTAGGTACTTCGAGTAAACAAATTTTCCTAATCTTTCTGTTCAAGCGCCATCTAC”: 0.467; “GATGATTGTTCTCCCAGCTGATGAATTGAAATAATCGAGTAAACAAATTTTCCTAATCTTTCTGTTCAAGCGCCATCTAC”: 0.377; “GATGATTGTTCTCCCAGCTGATGAATTAACCGACTCGAGTAAACAAATTTTCCTAATCTTTCTGTTCAAGCGCCATCTAC”: 0.215.
The value for “GATGATTGTTCTCCCAGCTGATGAATTAGTCGCCTCGAGTAAACAAATTTTCCTAATCTTTCTGTTCAAGCGCCATCTAC” was 0.821.
